Values joined by “and” are separate entries in the source; they are usually repeats but may differ in a detail not shown here. Equal values may be shown once. The campaign covered roughly 94,000 compounds. About 4,000 (4.3%) were called active. The shares of active, inactive and inconclusive entries below differ from those in the screen. Calls come from the whole dose curve; as a rule, active = well fitted inhibition curve with a large enough effect; inconclusive = small, poorly fitted or top-dose-only effect; inactive = no such curve, though single readings can be large or run the other way. Where the call is inconclusive, the potency comes from a doubtful curve fit.
assay: Cytotoxic Profiling in NIH 3T3 Cell Line of Diverse Libraries Using Quantitative High-Throughput Screening; conditions: NIH 3T3 viability, CellTiter-Glo ATP luminescence, 48-72 h; series mostly up to 96.7 µM; note: nearly all actives have a fitted effect of over 55% in size
Outline: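 Viability of NIH 3T3 cells after 48 or 72 hr compound treatment at 37 °C was assessed by CellTiter-Glo, with luminescence imaged following a 10 min room-temperature step.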
Potency is the fitted concentration of half-maximal effect; tags give direction and shape of the fitted curve.

**Q.** With CCOc1ccc(CN2CCc3nc(N(C)C)[nH]c(=O)c3CC2)cc1OC as the compound, how does the Potency read?
**A.** inactive

**Q.** Which Potency does the source give for O=C(NCc1ccc(F)c(F)c1)c1ccc2nnc(-c3cc(C(F)(F)F)cc(C(F)(F)F)c3)n2c1 here?
**A.** inconclusive: 11.2 µM [inhibitor, full curve, poor fit]

**Q.** With O=C(Cc1ccc(Cl)cc1)N1CCC(c2n[nH]c(=O)n2-c2ccccc2)CC1 as the compound, how does the Potency read?
**A.** active: 31.6 µM

**Q.** For Cn1ccc(Nc2cc3c(cn2)CN(CCc2ccccc2)CCN3)n1, which Potency is on record?
**A.** active: 79.4 µM

**Q.** With Cc1nn(C(=O)CCCC(=O)N2CCC(CCOc3ccc(F)cc3)C2)c2ccccc12 (stereo not drawn) as the compound, how does the Potency read?
**A.** inactive

**Q.** Which Potency does the source give for O=C(NC1CC1)c1ccccc1OCC1CCCN(C(=O)C2CCCC2)C1 (stereo not drawn) here?
**A.** inconclusive: 50.1 µM [inhibitor, partial curve, poor fit]

**Q.** For CCN1CCN(c2ccc(C(=O)N3CCCC(c4ccccc4)CC3)cn2)CC1 (stereo not drawn), which Potency is on record?
**A.** inconclusive: 50.1 µM [inhibitor, partial curve, poor fit]

**Q.** Which Potency does the source give for Cc1ccc(-c2cc(C(=O)NCc3ccc4c(c3)OCO4)nn3cnnc23)cc1 here?
**A.** inconclusive: 50.1 µM [inhibitor, partial curve, poor fit]

**Q.** For O=C(NCCc1ccccc1F)c1nc2sccn2c1-c1cccc(C(F)(F)F)c1, which Potency is on record?
**A.** inconclusive: 25.1 µM [inhibitor, full curve, poor fit]

**Q.** For Clc1ccccc1C1(c2ccnc(NC3CCC3)n2)CCNCC1, which Potency is on record?
**A.** active: 28.2 µM

**Q.** For O=C(C1CC12CCCC2)N1CCc2onc(-c3cccc(F)c3)c2C1 (stereo not drawn), which Potency is on record?
**A.** inconclusive: 50.1 µM [inhibitor, partial curve, poor fit]

**Q.** Which Potency does the source give for COc1ccc(CNC(=O)Cn2c(N3CCc4ccccc4C3)nc(C)cc2=O)cc1 here?
**A.** inconclusive: 35.5 µM [inhibitor, partial curve, poor fit]

**Q.** Which Potency does the source give for CC(C)OCCCNc1nc2c([S+](=O)([O-])c3ccncc3)nnn2c2ccccc12 here?
**A.** inconclusive: 2.51 µM [inhibitor, full curve, poor fit]

**Q.** Which Potency does the source give for COc1ccc(-c2noc([C@@H]3CCCN3C(=O)c3cc(C)cc(C)c3)n2)cc1OC here?
**A.** inconclusive: 14.1 µM [inhibitor, full curve]

**Q.** With COc1ccccc1-c1cccc(CN)c1 as the compound, how does the Potency read?
**A.** active: 126 µM

**Q.** Which Potency does the source give for COCC(=O)N1CCc2nc(C)nc(-c3ccc(Cl)cc3)c2CC1 here?
**A.** inactive

**Q.** Which Potency does the source give for CC1CCN(CC2CCCN(C(=O)C3(c4ccccc4)CC3)CC2)CC1 (stereo not drawn) here?
**A.** inactive

**Q.** For O=C(C1CCCN1C(=O)c1ccc(Cl)nc1)N1CCC(N2CCOCC2=O)CC1 (stereo not drawn), which Potency is on record?
**A.** inactive

**Q.** For CCOc1ccccc1CN1CC[C@H](CNC(C)=O)[C@H](N(C)C)C1, which Potency is on record?
**A.** inactive

**Q.** Which Potency does the source give for N#Cc1cccc(-c2cn3cc(C(=O)NCCCc4ccccc4)nc3s2)c1 here?
**A.** inconclusive: 35.5 µM [inhibitor, partial curve]

**Q.** Which Potency does the source give for O=C(c1ccc(F)c(F)c1)N1CCN(c2cc(-c3ccc(F)cc3)[nH]n2)CC1 here?
**A.** inconclusive: 28.2 µM [inhibitor, partial curve]

**Q.** With CC(=O)N1CCC(Cc2ncc(C)n2CC2CC2)C1 (stereo not drawn) as the compound, how does the Potency read?
**A.** inactive

**Q.** With O=C(NCc1cccnc1)c1nc(-c2ccc(F)cc2)c2ccccn12 as the compound, how does the Potency read?
**A.** inconclusive: 50.1 µM [inhibitor, partial curve, poor fit]

**Q.** With COCCn1ncc(N2CCCC(CC(=O)NCCc3ccccc3)C2)cc1=O (stereo not drawn) as the compound, how does the Potency read?
**A.** inconclusive: 79.4 µM [inhibitor, partial curve, poor fit]

**Q.** Which Potency does the source give for CNC(=O)[C@@H](c1ccc(Cl)cc1)N1CCC[C@H]1C(=O)NC(C)(C)C here?
**A.** inactive

**Q.** For Cc1nnc2ccc(N3CCC(NC(=O)c4ccccc4F)CC3)nn12, which Potency is on record?
**A.** inactive

**Q.** For CNC(=O)[C@@H](CC(C)C)N1CCC[C@H]1C(=O)NC1CCCCC1, which Potency is on record?
**A.** inactive

**Q.** Which Potency does the source give for O=C([C@@H]1C[C@H](Oc2cccnc2)CN1S(=O)(=O)Cc1ccccc1F)N1CCCC1 here?
**A.** inconclusive: 50.1 µM [inhibitor, partial curve, poor fit]

**Q.** With CC(C)(C)CN1Cc2cc3c(cc2N(CC(O)COC(C)(C)C)CCC1=O)OCO3 (stereo not drawn) as the compound, how does the Potency read?
**A.** inconclusive: 79.4 µM [inhibitor, partial curve, poor fit]

**Q.** For CC(=O)N[C@@H]1C=C[C@@H](c2c(C)nn(-c3ccc(C)c(Cl)c3)c2C)C1, which Potency is on record?
**A.** active: 79.4 µM

**Q.** Which Potency does the source give for Cc1ccc(-c2cc3c(ccn3Cc3cccnc3)c(C3=CCOCC3)n2)cn1 here?
**A.** inconclusive: 10 µM [inhibitor, full curve, poor fit]

**Q.** For O=C(C1CC1)N1CCC(Oc2cnc3c(ccn3-c3cncnc3)c2)CC1, which Potency is on record?
**A.** inconclusive: 56.2 µM [inhibitor, partial curve, poor fit]

**Q.** For COCCn1cc(C(=O)NC2CCCc3c2[nH]c2ccccc32)c2ccccc2c1=O (stereo not drawn), which Potency is on record?
**A.** inconclusive: 70.8 µM [inhibitor, single point]

**Q.** Which Potency does the source give for COc1cccc(-c2ccc(C(=O)N3CCC(NC(=O)C4CC4)CC3)cc2)c1 here?
**A.** inconclusive: 50.1 µM [inhibitor, partial curve, poor fit] and inconclusive: 39.8 µM [inhibitor, partial curve, poor fit]

**Q.** For CN(C(=O)c1cccn1C)C1CCc2nn(C)c(=O)n2CC1 (stereo not drawn), which Potency is on record?
**A.** inactive

**Q.** For CCCC1c2nccn2CCCN1C(=O)c1ccoc1C (stereo not drawn), which Potency is on record?
**A.** inactive

**Q.** Which Potency does the source give for O=C(c1cn(C/C=C/c2ccccc2)nn1)N1CCCN(C2CCCCC2)CC1 here?
**A.** inactive

**Q.** With COCC(=O)N1CCN(C(=O)c2cccnc2)[C@@H](C(=O)N[C@H]2CCCNC2=O)C1 as the compound, how does the Potency read?
**A.** inactive

**Q.** For Cc1nn(-c2ccccc2)c2c1C(C(C)C)N(C1CCN(C(=O)c3ccccc3F)C1)C2=O (stereo not drawn), which Potency is on record?
**A.** inconclusive: 50.1 µM [inhibitor, partial curve, poor fit]

**Q.** With COCC1CN(S(=O)(=O)c2cc(Cl)ccc2OC)CC12CCNCC2 (stereo not drawn) as the compound, how does the Potency read?
**A.** inactive

**Q.** Which Potency does the source give for Cc1ccc(C(=O)N2CCC3(CC2)NC(=O)N(c2cccc(F)c2)N3)cc1 here?
**A.** inconclusive: 35.5 µM [inhibitor, partial curve]

**Q.** With N#Cc1ccc(CN2CCc3nc(C(=O)NCc4cccc(F)c4)oc3CC2)cc1 as the compound, how does the Potency read?
**A.** inconclusive: 56.2 µM [inhibitor, partial curve, poor fit]

**Q.** With COCCC(=O)N1CC(Oc2ccccc2-c2nc(C3CC3)no2)C1 as the compound, how does the Potency read?
**A.** inactive

**Q.** For CC(=O)NC1(C)CCN(Cc2ccc(-c3ccc(Oc4ccccc4)cc3)cc2)C1 (stereo not drawn), which Potency is on record?
**A.** active: 12.6 µM

**Q.** With Cc1nc(-c2ccccc2)n(Cc2nc(-c3ccccc3)oc2C)c(=O)c1CCO as the compound, how does the Potency read?
**A.** inconclusive: 31.6 µM [inhibitor, partial curve]

**Q.** With CC(C)(C)c1ccc(C(=O)N2CCN(C(=O)c3nnn4c3COC(c3ccccc3)C4)CC2)cc1 (stereo not drawn) as the compound, how does the Potency read?
**A.** inconclusive: 44.7 µM [inhibitor, partial curve, poor fit]

**Q.** With CC(C)CN1C(=O)CCc2cc(NC(=O)c3ccc(N(C)C)cc3)ccc21 as the compound, how does the Potency read?
**A.** inconclusive: 44.7 µM [inhibitor, partial curve, poor fit]

**Q.** For CNC(=O)c1cc(C2CC2)nc2c1c(C1CCN(C(=O)c3ccc(C)cc3)CC1)nn2C, which Potency is on record?
**A.** inconclusive: 70.8 µM [inhibitor, single point]

**Q.** With CN1Cc2ccc(C(=O)Nc3ccc(OC(F)(F)F)cc3)cc2OCC1=O as the compound, how does the Potency read?
**A.** inconclusive: 35.5 µM [inhibitor, partial curve, poor fit]

**Q.** With CC(=O)N1CCC(N2C[C@H](O)C[C@H]2c2nc(-c3cccc(C)c3)no2)CC1 as the compound, how does the Potency read?
**A.** inconclusive: 100 µM [inhibitor, partial curve, poor fit]

**Q.** With Cc1ccc(CN2CC(Oc3ccccc3C(=O)N3CCOCC3)C2)s1 as the compound, how does the Potency read?
**A.** inconclusive: 39.8 µM [inhibitor, partial curve, poor fit]

**Q.** Which Potency does the source give for CC1CCN(C(=O)C2COC3(CCC(C)CC3)N2C(=O)c2ccc(F)cc2)CC1 (stereo not drawn) here?
**A.** inconclusive: 39.8 µM [inhibitor, partial curve, poor fit]

**Q.** Which Potency does the source give for COc1ccc(-c2cc(N3CCC(NC(=O)c4ccc(Cl)cc4)C3)n[nH]2)cc1 (stereo not drawn) here?
**A.** inconclusive: 70.8 µM [inhibitor, single point]

**Q.** Which Potency does the source give for COc1ccccc1-c1ccc2c(C(=O)N3CCC(Cc4ccccc4)CC3)nn(C)c2n1 here?
**A.** inconclusive: 56.2 µM [inhibitor, partial curve, poor fit]

**Q.** Which Potency does the source give for CCOc1cccc(CNC(=O)c2ccc3c(c2)N(S(C)(=O)=O)CC3)c1 here?
**A.** inconclusive: 35.5 µM [inhibitor, partial curve]

**Q.** Which Potency does the source give for O=C(COc1ccc(F)cc1)N1CCC(n2cc(-c3nc(C4CC4)no3)nn2)C1 (stereo not drawn) here?
**A.** inconclusive: 70.8 µM [inhibitor, partial curve, poor fit]

**Q.** For Cc1ccc(CCNC(=O)c2nnn3cc(C)[nH]c(=O)c23)cc1, which Potency is on record?
**A.** inconclusive: 56.2 µM [inhibitor, partial curve, poor fit]

**Q.** Which Potency does the source give for COc1ccc(C(=O)N[C@@H]2CN(c3ncccn3)C[C@H]2CN(C)C)c(OC)c1 here?
**A.** inactive

**Q.** Which Potency does the source give for COc1ccccc1Cn1c(=O)c(C(=O)NC2CCCC2)nc2cccnc21 here?
**A.** inconclusive: 50.1 µM [inhibitor, single point]

**Q.** With CC(C)(C)CC(=O)Nc1nc2c(s1)C[C@@H]1[C@](C)(CO)[C@H](O)CC[C@@]1(C)[C@@H]2CC(=O)NCc1ccccc1 as the compound, how does the Potency read?
**A.** inconclusive: 50.1 µM [inhibitor, partial curve]

**Q.** With O=C1C[C@@H]2CCN(C(=O)COc3ccccc3)C[C@@H]2CCN1CCN1CCOCC1 as the compound, how does the Potency read?
**A.** inconclusive: 126 µM [inhibitor, single point]

**Q.** With Cc1ccc(Nc2ccnc(N3CCC(NC(=O)c4ccc(C(F)(F)F)cc4)CC3)n2)cc1 as the compound, how does the Potency read?
**A.** active: 12.6 µM

**Q.** With O=C1Cc2c(-c3cccc4ccccc34)n[nH]c2CN1Cc1ccccc1 as the compound, how does the Potency read?
**A.** inconclusive: 56.2 µM [inhibitor, partial curve, poor fit]
